# Assay results: article PMC4336329 (PLoS ONE, 2015)
# The whole screen tested about 310,000 compounds, of which about 14,000 (4.5%) showed an effect of 50% or more. The effect is printed as a negative number. The list shows a part of the results.
# Target: human ether-à-go-go-related gene (hERG) potassium channel (human, UniProt Q12809)
# Assay: primary screen, population patch clamp on CHO cells stably expressing hERG
# 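Further: peak tail current of the secondary pulse compared with the same well before compound.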
# human ether-à-go-go-related gene (hERG) potassium channel, sequence (Q12809 whole entry, looked up): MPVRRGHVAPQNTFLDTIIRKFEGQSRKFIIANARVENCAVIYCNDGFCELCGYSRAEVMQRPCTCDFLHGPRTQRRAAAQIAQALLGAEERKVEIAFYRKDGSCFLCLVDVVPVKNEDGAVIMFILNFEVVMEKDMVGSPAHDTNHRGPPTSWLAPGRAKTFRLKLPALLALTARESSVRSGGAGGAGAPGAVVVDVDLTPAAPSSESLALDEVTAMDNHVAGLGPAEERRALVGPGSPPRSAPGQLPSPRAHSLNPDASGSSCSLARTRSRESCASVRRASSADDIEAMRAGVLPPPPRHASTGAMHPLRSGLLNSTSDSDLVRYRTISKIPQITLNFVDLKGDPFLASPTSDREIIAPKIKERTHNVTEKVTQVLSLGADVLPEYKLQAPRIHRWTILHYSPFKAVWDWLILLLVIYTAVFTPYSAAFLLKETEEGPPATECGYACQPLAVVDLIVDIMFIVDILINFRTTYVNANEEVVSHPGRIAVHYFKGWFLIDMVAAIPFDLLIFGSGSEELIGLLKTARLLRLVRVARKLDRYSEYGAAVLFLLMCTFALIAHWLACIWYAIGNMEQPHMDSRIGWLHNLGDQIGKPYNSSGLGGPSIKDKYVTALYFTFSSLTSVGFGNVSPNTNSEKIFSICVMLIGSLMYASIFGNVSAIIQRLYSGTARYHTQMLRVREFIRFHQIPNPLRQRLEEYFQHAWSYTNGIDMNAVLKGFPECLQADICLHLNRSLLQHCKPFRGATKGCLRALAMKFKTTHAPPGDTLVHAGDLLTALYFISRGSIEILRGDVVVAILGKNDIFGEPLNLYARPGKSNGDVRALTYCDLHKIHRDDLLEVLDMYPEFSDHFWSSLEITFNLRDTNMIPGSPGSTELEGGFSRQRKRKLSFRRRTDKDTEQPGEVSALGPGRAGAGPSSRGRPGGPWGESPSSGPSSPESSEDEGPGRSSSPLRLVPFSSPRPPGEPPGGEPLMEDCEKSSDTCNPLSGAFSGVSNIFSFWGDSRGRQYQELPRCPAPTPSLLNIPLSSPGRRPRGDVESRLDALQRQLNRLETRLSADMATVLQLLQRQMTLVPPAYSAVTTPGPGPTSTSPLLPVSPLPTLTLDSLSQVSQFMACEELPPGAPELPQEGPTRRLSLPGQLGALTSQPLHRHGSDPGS
row,Structure (SMILES),"hERG current change (%, negative = inhibition) at 10uM [%]"
1,COc1ccc(/C=N/NC(=O)c2cccc([N+](=O)[O-])c2)cc1OS(=O)(=O)c1ccccc1,2.23
2,O=[N+]([O-])c1ccccc1-c1cc(-c2ccccc2)cc(-c2ccccc2)[n+]1Cc1ccccc1Cl.[O-][Cl+3]([O-])([O-])[O-],-78.7
3,COc1cccc(-c2nc(CS(=O)(=O)CC(=O)Nc3ccccc3C)c(C)o2)c1,16.6
4,CCc1ccc(CNC(=O)CCS(=O)(=O)Cc2ccc(C)cc2)cc1,6.45
5,Cc1ccc(-c2nnn(CC(=O)N3CCCCC3)n2)c(-n2cnnn2)c1,-2.81
6,Oc1ccc(/C=N/Nc2ncnc3nc[nH]c23)cc1,6.9
7,C=CCN(CC=C)C(=O)Cc1ccc(F)cc1,16.1
8,COc1ccccc1N1C(=O)C2ON(c3ccccc3)C(c3ccc(N(C)C)cc3)C2C1=O (stereo not shown),13.4
9,Cn1cnc2c1c(=O)n(Cc1ccccc1C#N)c(=O)n2C,23
10,CCCc1cc(=O)[nH]c(SCC(=O)c2[nH]c(C)c(C(=O)OCC)c2C)n1,-25
11,CNCC(C)c1ccccc1.Cl (stereo not shown),22.2
12,N/C(Cc1ccc([N+](=O)[O-])cc1)=N\OC(=O)c1ccccc1F,-35.6
13,Cc1ccc(-c2nn(-c3ccccc3)cc2C(=O)NC2CCC(O)CC2)cc1 (stereo not shown),-9.21
14,S=C(NCc1ccco1)Nc1ccccn1,0.917
15,Cc1ccc(OCc2cc(C(=O)N3CCC(C(O)C(C)C)CC3)no2)cc1C (stereo not shown),-23.1
16,COCC(=O)N(CCc1ccc(OC)c(OC)c1)Cc1nc2ccccc2c(=O)[nH]1,-8.28
17,O=C(c1ccco1)N1CCN(C(=O)C2CCCN(S(=O)(=O)Cc3ccccc3)C2)CC1 (stereo not shown),-35.4
18,Cc1ccc(NC(=O)c2sc(N)nc2C)cc1,14.8
19,Cc1ccc(C)c(NS(=O)(=O)c2ccc(OCC(=O)NCc3ccco3)cc2)c1,10.3
20,CN1C(=O)COc2ccc(C(=O)c3ccccc3C(=O)O)cc21,11
21,N#Cc1ccsc1NC(=O)CN1CCOCC1,16.3
22,Cc1ccc(S(=O)(=O)N/N=C/c2c[nH]c3ccccc23)cc1,-5.38

row,Structure (SMILES),"hERG current change (%, negative = inhibition) at 10uM [%]"
1,CCOC(=O)c1cc2c(C(F)(F)F)cc(-c3ccccc3)nc2o1,12.8
2,O=C(NCc1ccccc1)c1ccc(-c2ccc(F)cc2)o1,1.02
3,Cc1ccc(C2(C)NC(=O)N(CC(=O)N3CCN(C(=O)c4cccs4)CC3)C2=O)cc1 (stereo not shown),-12.3
4,CCn1c(=N)c(S(=O)(=O)c2ccc(Cl)cc2)cc2c(=O)n3ccccc3nc21,12.7
5,O=C(CN1CC[n+]2c(-c3cccs3)csc21)c1ccc(Br)cc1.[Br-],-45.9
6,COc1ccc(NS(=O)(=O)c2ccc3oc(=O)c4[nH]c(=O)c(=O)n(C)c4c3c2)cc1,15.8
7,COc1ccc(NC(=O)C(CCSC)N2C(=O)c3ccccc3C2=O)cc1 (stereo not shown),-10.3
8,O=C(COC(=O)CNC(=O)c1sc2ccccc2c1Cl)Nc1cc(Cl)cc(Cl)c1,-54.7
9,O=C(CCCn1c(=O)c2ccccc2n(CC(=O)N2CCN(c3ccccc3)CC2)c1=O)NCc1ccco1,-10.2
10,c1ccc2oc(CCc3nc4ccccc4o3)nc2c1,-1.56
11,CS(=O)(=O)N(CC(=O)Nc1ccccc1C(=O)N1CCCC1)c1ccccc1Br,-2.32
12,CC(=O)OC(C(=O)N1CCN(c2ccccc2F)CC1)c1ccccc1 (stereo not shown),-22.3
13,O=C(Nc1cc([N+](=O)[O-])ccc1O)c1cccc([N+](=O)[O-])c1,19.1
14,O=C(O)CCc1ccc(-c2cccs2)n1CC(=O)Nc1ccccc1C(F)(F)F,22.8
15,O=C(CNS(=O)(=O)c1ccccc1)N1CCc2ccccc2C1,4.71
16,O=C(C[n+]1cccc(CNC(=O)c2ccc(OC(F)F)cc2)c1)Nc1cccc(C(F)(F)F)c1.[Cl-],-9.62
17,CCOc1cccc(C(=O)N(Cc2ccco2)C2CCS(=O)(=O)C2)c1 (stereo not shown),-7.48
18,COc1ccc(NC(=O)CCn2c(=O)c3cccn3c3ccccc32)c(OC)c1,8.41
19,Cc1c(C(=O)Nc2cccc(-c3nnc4n3CCCCC4)c2)oc2ccccc12,-4.57
20,CC(C)(C)NC(=O)CSc1nc2ccccc2c(=O)[nH]1,11.7
21,CCC(=O)Nc1ccc2c(c1)nc(CCN1CCCCC1)n2C,7.26
22,Cc1sc2ncn(CC(=O)NCc3ccccn3)c(=O)c2c1S(=O)(=O)N1CCOCC1,3.16

row,Structure (SMILES),"hERG current change (%, negative = inhibition) at 10uM [%]"
1,COc1ccc(N(CC(=O)O)S(C)(=O)=O)cc1OC,1.3
2,COc1cccc(CNC(=O)C2CC(=O)N(C3CCCCCCC3)C2)c1 (stereo not shown),9.91
3,CC12COC3(C(=O)Nc4nccs4)CC1CCC32C (stereo not shown),0.557
4,Cc1ccc(NC(=O)Cn2cc3c(n2)CCC(C)C3)cc1 (stereo not shown),7.73
5,CCOC(=O)C1=C(C)N=C2SC(C)C(=O)N2C1c1cccc(F)c1 (stereo not shown),-3.16
6,CCOC(=O)C1=C(C)N=C2SCCC(=O)N2C1c1cccs1 (stereo not shown),-10.2
7,CN(C)S(=O)(=O)c1ccc(C(=O)NCC(c2cccs2)N2CCOCC2)cc1 (stereo not shown),1.61
8,COc1ccc(-c2cc(C(F)(F)F)n3ncc(C(=O)NCC4CCCO4)c3n2)cc1OC (stereo not shown),5.6
9,COc1ccc(Cc2n[nH]c(=S)n(N)c2=O)cc1,13.6
10,N#C/C(=C(/O)c1ccccc1F)c1nc2cc(C(F)(F)F)ccc2s1,20.8
11,Clc1ccc(CO/N=C2\CCCc3nonc32)c(Cl)c1,-10.1
12,O=C(CN1C(=O)C2CCCCC2C1=O)N1CCN(c2ncccn2)CC1 (stereo not shown),4.17
13,Cn1c(CNC(=O)c2ccccc2F)nnc1SCCOc1ccccc1,7.07
14,COCCN(Cc1ccccc1)C(=O)c1ccc2c(c1)NC(=O)CS2,-8.25
15,COc1cc(Cl)c(CN2CCCC(CO)(Cc3ccccc3F)C2)cc1OC (stereo not shown),-20.1
16,CC1CC(C)CN(C(=O)COC(=O)C2CCN(S(=O)(=O)c3ccc4c(c3)OCCO4)CC2)C1 (stereo not shown),-12.5
17,CN=C1S/C(=C\c2cc(C)n(-c3ccccc3F)c2C)C(=O)N1C,5.55
18,CCN(CC)C(CNS(=O)(=O)c1ccc(Cl)cc1)c1ccccc1 (stereo not shown),-17.9
19,COC(=O)C1=C(c2c(C)noc2C)C[C@@H]2CC[C@H]1N2C(=O)NCCCOC(C)C,-12.2
20,Cc1ccc(CNC(=O)c2cccnc2Sc2cccc(Cl)c2)cc1,4.46
21,Cc1ccc(N(CC(=O)N2CCCC2)S(C)(=O)=O)c(C)c1,19.6
22,Cn1c(-c2cccc([N+](=O)[O-])c2)cnc1NCc1ccc(C#N)cc1.O=C(O)C(=O)O,-75

row,Structure (SMILES),"hERG current change (%, negative = inhibition) at 10uM [%]"
1,CN(C)CC(C)(C)CNC(=O)c1cc(=O)c2ccccc2o1.Cl,19.6
2,N#CCCn1nc(-c2ccc([N+](=O)[O-])cc2)cc1Nc1ccccc1NC(=O)C(F)(F)F,-20.1
3,COc1cccc(C2=NOC(C(=O)Nc3cc(OC)c(OC)c(OC)c3)C2)c1 (stereo not shown),-0.496
4,S=C1NC[C@H](c2ccccc2)N1CC1CCCCC1,-5.45
5,COc1ccc(OC)c(CC(NC(C)=O)C(=O)NC2CCN(c3cc(C)nc4ncnn34)CC2)c1 (stereo not shown),45.1
6,O=C(NC(=O)C(F)(F)F)Nc1ccc(S(=O)(=O)Nc2nccs2)cc1,14.3
7,COc1ccccc1CCNC(=O)CSc1nc(-c2ccco2)cc(C(F)(F)F)n1,27.1
8,O=C(NCC1CCCN(C(=O)NCc2ccccc2)C1)c1ccc2c(c1)OCO2 (stereo not shown),1.32
9,CC(=O)COc1ncnc2c(Cl)cc(Cl)cc12,17.6
10,COc1cc(CNCCNC(=O)c2nonc2N)ccc1OCc1ccc(Cl)nc1.Cl,-56.4
11,CCN(Cc1ccccc1)C(=O)c1ccc(CNS(=O)(=O)c2ccc(C)cc2)cc1,-10.3
12,CC1CCN(c2oc(-c3ccco3)nc2S(=O)(=O)c2ccccc2)CC1,-6.14
13,CCN(CC)CCNC(=O)c1ccc(NC(=O)c2cc(S(=O)(=O)N3CCCCC3)ccc2C)cc1,14.8
14,CC(=NCCc1ccccc1)c1c(O)n(C)c(=O)n(C)c1=O,1.46
15,Cn1cc(CCNC(=O)CCc2nnc(CCCCc3ccccc3)o2)cn1,0.976
16,CC(C)CC(=O)Nc1ccccc1-c1nnn(CC(=O)N2CCOCC2)n1,-2.78
17,CCc1ccc(NC(=O)c2ccccc2Br)cc1,-11.2
18,O=[N+]([O-])c1ccccc1S(=O)(=O)Nc1ccc(S(=O)(=O)Nc2nccs2)cc1,-5.3
19,O=S(Cc1ccc(Br)cc1)Cc1nnc(SCc2c(Cl)cccc2Cl)n1-c1ccccc1 (stereo not shown),-21.5
